This is an account of results in PMC6212790.

This is one part of the list. At the low end of the ranking the order means little.

The target in the assay is T1, GST-Rok (full length) (UniProt O34857).
T1 sequence: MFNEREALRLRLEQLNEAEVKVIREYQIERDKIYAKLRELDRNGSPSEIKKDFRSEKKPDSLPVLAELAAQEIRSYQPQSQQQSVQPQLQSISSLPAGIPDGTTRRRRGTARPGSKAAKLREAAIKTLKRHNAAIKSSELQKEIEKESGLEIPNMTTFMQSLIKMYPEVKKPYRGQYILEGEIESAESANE
Nature of the assay: protein binding microarray.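 Also: rank score from −0.5 (least bound) to 0.5 (best bound).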 The conditions noted are these: Rok is a gene silencer of Bacillus subtilis; high values mean tight binding; most listed sequences are background and not binding sites; double strand, one strand shown.
As to CGGCACCA, the binding signal was -0.19 E-score.
In the case of AGCCGAGC, the binding signal is -0.277 E-score.
Turning to TCATCAGA, the binding signal was found to be 0.0627 E-score.
AAAACCAT displayed a binding signal of 0.169 E-score.
In turn, ACCTGAAA yielded a binding signal of -0.124 E-score.
As for AGATCGTA, the figure is 0.202 E-score.
Consider CACTCCCC, for which the binding signal is -0.399 E-score.
For CAGTATAG, the binding signal worked out at 0.165 E-score.
Regarding GAAGAGAA, the binding signal stood at 0.0662 E-score.
The value for GCCTCGCC was -0.429 E-score.
The value for ACGGAGAC was -0.0965 E-score; that for CTTAATAA was 0.146 E-score.
In turn, TAGTGGAA displayed a binding signal of 0.164 E-score.
For ATCCGGAT, the binding signal is 0.177 E-score.
Sequence CGGAACGC had a binding signal of -0.241 E-score.
As for CAGCAGAA, the figure is -0.0962 E-score; as for CAAGTGGA, -0.167 E-score.
CAATTAAC: the binding signal turned out to be 0.0429 E-score.
In turn, GTAGCGCA yielded a binding signal of 0.0818 E-score.
Regarding ATAAGTAC, the binding signal was 0.272 E-score.
The value for AGGAACCT was -0.135 E-score.
The value for AGGGCCAT was -0.0842 E-score; that for ATTAATTG was 0.204 E-score.
Sequence AACGGACT registered a binding signal of -0.127 E-score.
The sequence GCGGACCC returned a binding signal of -0.319 E-score.
CAGTATAA registered a binding signal of 0.312 E-score.
As to CACTGCCG, the binding signal is -0.341 E-score.
The sequence AATAAGGG had a binding signal of -0.0581 E-score.
For the sequence AATCTGTG, the binding signal was -0.0281 E-score.
The value for AAAGTCTA was -0.144 E-score; that for GGACTGCA was -0.209 E-score; that for AGGAAAGG was -0.239 E-score.
For the sequence ATATGTGC, the binding signal is 0.188 E-score.
Take ATCTCCGG: the binding signal came out at 0.00901 E-score.
As to CGTTGCGC, the binding signal is -0.243 E-score.
Regarding GTACAGTA, the binding signal was 0.208 E-score.
AGCTCCCC had a binding signal of -0.408 E-score.
Turning to TTCAGAAA, the binding signal was -0.132 E-score.
Consider AAGGTAAG, for which the binding signal was -0.266 E-score.
On to CATACACC, for which the binding signal is 0.115 E-score.
As for GATGGGCA, the figure is -0.271 E-score.
The value for CTTAACTC was 0.071 E-score; that for CACGTACA was 0.192 E-score; that for GGCGACCC was -0.45 E-score.
Consider ATCGGAAA, for which the binding signal was found to be 0.0118 E-score.
ACGCGCTC came in with a binding signal of -0.117 E-score.
In turn, CGGGGACA yielded a binding signal of -0.319 E-score.
CGTCCGTA displayed a binding signal of -0.0554 E-score.
In turn, CCCCGGCA displayed a binding signal of -0.27 E-score.
Sequence GCCAGCGA showed a binding signal of -0.261 E-score.
In turn, AGATGGAC returned a binding signal of -0.239 E-score.
For ACGGAATC, the binding signal came out at 0.193 E-score.
With ATCGAGAG, the binding signal was -0.0291 E-score.
With CACCAGTG, the binding signal is -0.124 E-score.
With ACGGCGGG, the binding signal was -0.259 E-score.
In turn, ATTTGTAG came in with a binding signal of 0.334 E-score.
Sequence AATCACTC came in with a binding signal of -0.0767 E-score.
ACCGGTCT registered a binding signal of -0.0218 E-score.
The sequence ACAAGTGT showed a binding signal of 0.195 E-score.
ACAAGTGG: the binding signal is 0.0565 E-score.
On to CAATTTTA, for which the binding signal is 0.249 E-score.
CATGTGAC had a binding signal of 0.0968 E-score.
The value for CAAACAAA was -0.208 E-score.
Consider AAAGTGCA, for which the binding signal was -0.00348 E-score.
As to ACGCCAGC, the binding signal is -0.0236 E-score.
The sequence AGGCTGCA had a binding signal of -0.203 E-score.
Sequence ACATTTGC registered a binding signal of 0.134 E-score.
In turn, GCTTTGGA showed a binding signal of -0.148 E-score.
For CACCCTAA, the binding signal is -0.155 E-score.
GGCGTCAC: the binding signal was -0.293 E-score.
The value for ATGACGGG was -0.276 E-score.
In turn, CCTAAGTA showed a binding signal of 0.0387 E-score.
As for AGAATCGA, the figure is -0.121 E-score; as for CTCATTTC, -0.0699 E-score.
The sequence CCGTCATA returned a binding signal of -0.106 E-score.
Sequence CGAATCCG yielded a binding signal of -0.07 E-score.
Regarding CTCAGCTC, the binding signal was -0.332 E-score.
CAACGATG: the binding signal is -0.0562 E-score.
In turn, GAGCTTTA showed a binding signal of -0.109 E-score.
In turn, CAGCAGCG displayed a binding signal of -0.131 E-score.
As to ATGAACCC, the binding signal is -0.139 E-score.
CCCCCTAA yielded a binding signal of -0.309 E-score.
In turn, TCTCGTAA registered a binding signal of -0.0286 E-score.
In turn, GTGGATCA showed a binding signal of 0.0489 E-score.
The value for ACTCAGAA was -0.025 E-score; that for GGCGCGTA was 0.0145 E-score; that for GGACACTA was -0.0441 E-score.
CATCAAGG came in with a binding signal of -0.296 E-score.
Regarding AAAGCGAC, the binding signal was -0.0517 E-score.
On to ATCCTGTG, for which the binding signal amounted to 0.0664 E-score.
As for ATGTTTTA, the figure is 0.151 E-score.
On to ATGCGCCG, for which the binding signal was -0.177 E-score.
As for CAAGCACC, the figure is -0.156 E-score; as for CATAATAG, 0.243 E-score; as for AGTTGACC, -0.12 E-score.
Take AGGATGAA: the binding signal is -0.219 E-score.
Sequence AATGGGTA gave a binding signal of 0.289 E-score.
As for GGACTAGA, the figure is 0.0814 E-score; as for AATTGAAC, 0.0822 E-score.
In turn, CTAGACTC yielded a binding signal of -0.215 E-score.
With CCATGACC, the binding signal is -0.265 E-score.
Sequence CTTGAAAG came in with a binding signal of -0.0808 E-score.
In the case of GCTTGATA, the binding signal is 0.141 E-score.
In the case of ATTCTTCC, the binding signal is 0.0419 E-score.
The sequence AGCCATAA came in with a binding signal of 0.00412 E-score.
AGCTCCCG returned a binding signal of -0.283 E-score.
CAAACATA yielded a binding signal of 0.254 E-score.
Take AGTCGTCG: the binding signal was 0.00634 E-score.
AAAATATT: the binding signal was 0.358 E-score.
